Some of the results follow. At the low end of the ranking the order means little.

In this experiment the target is SIX1 homeodomain (reference allele) (UniProt Q15475). As to the kind of experiment: universal protein binding microarray. Conditions: Universal all-10-mer PBM (8x60K, AMADID 030236), 300 nM GST-tagged protein, Alexa Fluor 488 anti-GST; buffer, salt, pH and temperature not stated; high values mean tight binding; most listed sequences are background and not binding sites; double strand, one strand shown.
Take AACAAATC: the binding signal was determined as 0.0594 E-score.
With AGGATCAT, the binding signal worked out at 0.38 E-score.
Next, GTGCTTCA: -0.231 E-score; AAATTAAC: -0.16 E-score; CCAACGGG: -0.0501 E-score.
Then TAATAGTA, with 0.136 E-score; and AGGCATAA, with -0.12 E-score.
With GTAAGAAA, the binding signal amounted to 0.00823 E-score.
Then AATGCGCT, with -0.16 E-score; and ATCTTAAG, with 0.0288 E-score.
CCTGTACA: the binding signal is -0.075 E-score.
As for AGCATATG, the binding signal was -0.0476 E-score.
Next, AAGTTATG: -0.149 E-score; CTTTCGAC: -0.106 E-score.
CGCTGGAA: the binding signal was -0.271 E-score.
Take ACCCTCAA: the binding signal is -0.0356 E-score.
Next, ATGCGCAG: -0.0035 E-score; AGTGACTG: -0.32 E-score.
For AAACCAGC, the binding signal was -0.0648 E-score.
Then CCGCAGAG, with 0.112 E-score; and AACGGCTA, with -0.00326 E-score.
Next, CATATAAC: 0.113 E-score.
For the sequence GTAAAGAA, the binding signal was -0.227 E-score.
In the case of CGAGGAAG, the binding signal is -0.283 E-score.
Consider TCAAGCCA, for which the binding signal was -0.0746 E-score.
Then AGTTTCCA, with -0.188 E-score; and TACGGTGA, with 0.0562 E-score.
Then ACGATCAA, with -0.0514 E-score.
For TCCAGCCA, the binding signal is -0.179 E-score.
With GGGAAACA, the binding signal was -0.0628 E-score.
Then CAGCTAAA, with -0.143 E-score; and AGCCCGCT, with -0.145 E-score; and AACACGCC, with -0.214 E-score.
Next, ACGCGGAC: -0.242 E-score; GGTTGCGA: -0.0873 E-score; ACCCGCCA: 0.175 E-score.
Take AGACGTAC: the binding signal was -0.0313 E-score.
Next, ATAACAAG: 0.132 E-score; AGTCCACA: -0.115 E-score; CAATGGAG: 0.0116 E-score.
With GCAGAGGA, the binding signal worked out at 0.131 E-score.
Consider ACAAGGGG, for which the binding signal was 0.138 E-score.
Next, GAGCAGTA: -0.038 E-score.
Then CGTCAATA, with -0.00261 E-score.
Then ATAATATA, with 0.298 E-score; and GCGTTGAA, with -0.0972 E-score.
As for GAACGAGA, the binding signal is -0.0603 E-score.
Then GTAGTAGA, with -0.00164 E-score; and CGTGCCGA, with 0.0899 E-score.
Turning to ATAAAATG, the binding signal was -0.106 E-score.
Regarding ACCATCGA, the binding signal was -0.103 E-score.
Then AAGTCCGG, with -0.18 E-score; and GAGACTGA, with -0.0625 E-score; and AGGACCCC, with -0.0126 E-score.
Next, CCCGGTGA: -0.112 E-score.
Then AGTCACTA, with -0.0779 E-score; and ACTTAAGT, with -0.297 E-score; and GAATAAGC, with -0.0399 E-score.
As for AACACCAA, the binding signal was 0.227 E-score.
Turning to ACTAAATG, the binding signal worked out at 0.147 E-score.
Take ATTTACCA: the binding signal is -0.0681 E-score.
Consider AACACTTC, for which the binding signal was -0.0464 E-score.
Take ATTGCTTC: the binding signal is -0.0843 E-score.
In the case of AAATCGAG, the binding signal is -0.234 E-score.
Then ACGGCGTC, with -0.159 E-score.
Then GGCACATA, with 0.0957 E-score; and ACACTTGG, with -0.108 E-score.
For CCGAAAAA, the binding signal was -0.0875 E-score.
Then GGGGCGAC, with -0.261 E-score.
For TATCCGCA, the binding signal amounted to 0.401 E-score.
Then CGGAAATC, with -0.0199 E-score; and CAGACTCG, with -0.21 E-score; and TAAAACGA, with -0.222 E-score.
On to CGCGAGGC, for which the binding signal was -0.191 E-score.
Then CACGGTGC, with -0.042 E-score; and ACTTGTAA, with -0.167 E-score; and ATCAAGGC, with 0.114 E-score.
As to CTCTGCAG, the binding signal is -0.167 E-score.
Then GGGGTAAA, with 0.0714 E-score; and CCCAAAGC, with -0.222 E-score; and AACTGGTA, with 0.00825 E-score.
Next, AACCCATC: 0.0293 E-score; TCGCCGCA: -0.156 E-score; AGACCAGG: 0.0214 E-score.
Then CTTGAGAA, with -0.0811 E-score; and AGGTGAAA, with -0.216 E-score; and AGTCTTAG, with -0.0937 E-score.
As to CAAATGTC, the binding signal is -0.353 E-score.
Then GATGGACC, with -0.132 E-score; and CGTCTTAA, with -0.0169 E-score; and CAGTTTAC, with -0.14 E-score.
Consider AACTCGTA, for which the binding signal was 0.0341 E-score.
Then TCGGGTCA, with 0.166 E-score.
ATACGAAG: the binding signal worked out at 0.199 E-score.
For the sequence AACCATGG, the binding signal was -0.163 E-score.
Next, TCTGGAAA: -0.0625 E-score; AATGGCGA: -0.094 E-score.
Take GCGCACGC: the binding signal was -0.153 E-score.
Then AATGGGCG, with -0.229 E-score; and CCAGACGC, with -0.0669 E-score.
In the case of CCATAAAC, the binding signal is -0.023 E-score.
CGACGCTC: the binding signal was -0.197 E-score.
Take GAGATCAA: the binding signal is 0.31 E-score.
Then AGTCGTCA, with -0.272 E-score.
Turning to AACTTGCC, the binding signal is -0.344 E-score.
In the case of GCTACGGA, the binding signal is -0.109 E-score.
On to ACATCACG, for which the binding signal is -0.178 E-score.
With ATGTCGAA, the binding signal was -0.0645 E-score.
Then CGGACCCA, with 0.0829 E-score; and ACAAATAG, with -0.0412 E-score; and ACATGAAT, with 0.0158 E-score.
ACGTTAAC: the binding signal was -0.18 E-score.
For the sequence CACCTGAG, the binding signal is -0.0042 E-score.
Next, AACTTCTT: -0.34 E-score.
Consider CACGTATC, for which the binding signal was determined as 0.433 E-score.
Then AACGCTGA, with -0.263 E-score.
Next, ACGGATGA: 0.211 E-score; ACCGTAAC: -0.146 E-score; TTGTTAAA: -0.226 E-score.
Next, AAGGATAA: 0.167 E-score; CCCGTGAA: -0.004 E-score.
On to CAGTTCGG, for which the binding signal was -0.0792 E-score.
Then ATCTAGTA, with 0.158 E-score.
As to ACTCCACA, the binding signal was -0.0549 E-score.
Next, ATGTTCAG: -0.162 E-score.
Next, AATATGGA: 0.158 E-score; AATAGTTA: -0.171 E-score; AAAACAAC: -0.36 E-score.
On to CCAATACG, for which the binding signal was 0.129 E-score.
Then ATCTACGA, with 0.149 E-score; and CGTTATTC, with -0.135 E-score; and AACTCGCC, with -0.236 E-score.
Then CTAGTCAC, with -0.188 E-score; and ATCAAGTC, with 0.0975 E-score.
Next, ACCTTCCG: 0.0213 E-score; CCACGTAG: -0.0535 E-score.
Regarding CGATGCCG, the binding signal stood at 0.0279 E-score.
Next, CGTTCAGC: -0.249 E-score; TCGATGAA: -0.0545 E-score; CGCCAACG: -0.239 E-score.
Next, TATAGTGA: 0.142 E-score.
Next, AGATCCTC: 0.329 E-score.
For CTCGACCC, the binding signal came out at 0.189 E-score.
As to AACGGCAC, the binding signal is -0.242 E-score.
On to AGATCATC, for which the binding signal was found to be 0.344 E-score.
Next, CTGGCAAG: -0.155 E-score; ACGTAAAA: -0.27 E-score.
Then CGATCTTA, with 0.197 E-score.
Then TCAATACA, with 0.18 E-score.
Consider AACTACCC, for which the binding signal stood at 0.0794 E-score.
For CTAATCGA, the binding signal is -0.132 E-score.
With AGAGTTTA, the binding signal is -0.216 E-score.
Next, AAGCACCC: -0.0301 E-score.
Next, GATCCGAA: 0.357 E-score; CGCTCGAA: -0.0589 E-score; AGCCGCTC: 0.00908 E-score.
Then ACTCTATG, with -0.159 E-score; and AGAGGATC, with 0.366 E-score; and AAGTCCGT, with -0.313 E-score.
Turning to AAGGTTCG, the binding signal was -0.149 E-score.
Then CTTCCCCA, with -0.143 E-score.
Next, CGTTGCCA: -0.0877 E-score.
With ATGCTACC, the binding signal was -0.032 E-score.
Then GCCGAGTA, with -0.0783 E-score; and ACAGAACT, with -0.063 E-score; and TAATCCTA, with 0.215 E-score.
As to GAAACAAA, the binding signal is -0.292 E-score.
On to CGTATTAC, for which the binding signal is 0.26 E-score.
Next, GTGCGGTA: 0.116 E-score; AAGTACAT: 0.0292 E-score; CAAAAGAG: 0.00419 E-score.
On to CGAGGCCA, for which the binding signal is -0.0653 E-score.

For the origin of these results see article PMC10668032.
